# Tested on: 3TC resistant HBV (DM2)
# Assay: Activity against 3TC resistant HBV (DM2, L526MM550V) in transfected HepG2 cells
# Assay type: cell-based, Hepatitis B virus
# Settings: DM2, HepG2, 9 days; in words
compound,measurement,value
"O=C1OCc2c1cc1ccc3c(c1c2-c1ccc2c(c1)OCO2)OCO3 [Compound 145, 7,8-methylenedioxy-1-(3',4'-methylenedioxyphenyl)-2-hydroxymethylnaphthalene-3-carboxylic acid lactone]",effect on 3TC resistant HBV,essentially the same effect on 3TC resistant HBV (DM2) as on 3TC sensitive HBV
